Among all 340,000 compounds or so, about 6,900 (2%) were called active. Cut-off read from the data, not from the text of the source: active = inhibition above about 30%; inactive = below that, where a call was filed. The entries are a selection whose mix differs from that of the whole data set. The source gives no active or inactive call for entries shown without one.

For this experiment, the target named is D(2) dopamine receptor (Homo sapiens) (UniProt P14416). Kind of experiment: HTS Assay for Allosteric Antagonists of the Human D2 Dopamine Receptor: Primary Screen for Antagonists. Note: 0% is about no effect. The conditions noted are these: HEK293 TREx D2 cells, calcium flux, dopamine EC80; at 10 µM; stronger effect = higher value. The essentials: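 Calcium flux kinetic readout in an inducible HEK293 TREx D2 line plated overnight at 30 C. After 180 s compound exposure, an EC80 dopamine challenge follows with another 180 s kinetic read to detect antagonism.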
Chain of UniProt P14416 (P14416 whole entry, looked up): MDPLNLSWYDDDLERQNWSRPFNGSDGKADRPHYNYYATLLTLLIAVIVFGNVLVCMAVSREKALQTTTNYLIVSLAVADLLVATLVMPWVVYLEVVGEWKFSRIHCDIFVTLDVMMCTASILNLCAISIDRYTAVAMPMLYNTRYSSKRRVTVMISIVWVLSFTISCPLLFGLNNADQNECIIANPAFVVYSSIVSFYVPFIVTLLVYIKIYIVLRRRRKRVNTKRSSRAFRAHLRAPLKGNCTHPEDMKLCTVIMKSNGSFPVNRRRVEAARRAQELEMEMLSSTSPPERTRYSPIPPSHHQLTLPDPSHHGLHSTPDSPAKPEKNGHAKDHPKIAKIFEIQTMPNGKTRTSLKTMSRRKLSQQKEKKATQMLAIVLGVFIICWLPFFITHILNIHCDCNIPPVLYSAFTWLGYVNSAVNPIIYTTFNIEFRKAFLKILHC
Consider `O=C1CC(c2c(F)cccc2Cl)c2c(ccc3ccccc23)N1` (stereo not drawn), for which the inhibition is -8.12%. With `COc1cc(C2c3c(oc4ccc(F)cc4c3=O)C(=O)N2Cc2ccc3c(c2)OCO3)ccc1O` (stereo not drawn), the inhibition was -7.32%.

Consider `COc1ccc(C(=O)Nc2ccc3nc4c(c(Nc5ccccc5OC)c3c2)CCCC4)c(OC)c1`, for which the inhibition was 26.4%. For `COC(=O)c1cccnc1-n1c(=O)c2cccnc2n(CC(=O)Nc2cccc(C)c2)c1=O` the value was -2.93%; for `COc1ccc(N2CCN(c3nc4ccc(C(=O)c5ccccc5)cc4n4cnnc34)CC2)cc1`, -3.86%; for `CN(C)c1ccc(S(=O)(=O)NCC(=O)NCCC2=CCCCC2)cc1[N+](=O)[O-]`, active: 31.4%. The figure for `Nc1ccc(C(=O)N/N=C/c2cccc(Oc3ccccc3)c2)cc1` is active: 31.2%; for `CCOc1ccc(CN2CCN(Cc3ccc4c(c3)c3ccccc3n4CC)CC2)cc1` it is 6.52%; for `O=C(CCn1c(=O)c2ccccc2n(Cc2cccc(F)c2)c1=O)NCc1ccc2c(c1)OCO2` it is -9.53%.

Regarding `Cc1cc(C)cc(N2C(=O)N(Cc3cc(=O)n4ccccc4n3)c3ccccc3S2(=O)=O)c1`, the inhibition is 17.3%. Consider `Cc1ccc(-c2c(C(=O)N3CCN(c4ccc(F)cc4)CC3)oc(=O)c3ccccc23)cc1`, for which the inhibition turned out to be 4.06%.

Turning to `CCc1nn(CC(=O)NCc2ccc(C)cc2)c(=O)c2cc3occc3n12`, the inhibition is 7.19%.

Regarding `Cc1ccccc1OCCn1cc(C(=O)c2ccco2)c2ccccc21`, the inhibition is -7.76%.

On to `CC(C)COC(=O)n1c(SCC(=O)N(C)C)nc2ccccc21`, for which the inhibition was active: 31.4%. For `COc1ccc(OC)c(C2CC(=O)c3c([nH]c(C(=O)OCc4ccc(C)cc4)c3C)C2)c1` (stereo not drawn) the value was 26.4%; for `Clc1ccc(-c2noc3ncnc(NC4CCCCC4)c23)cc1`, 14.3%; for `Cc1ccc(CCNC(=O)c2cnc3c(-c4ccc(F)cc4)c(C)nn3c2C)cc1`, 1.61%.

With `O=C(Nc1nc2c(F)cccc2s1)c1ccc([N+](=O)[O-])o1`, the inhibition was active: 32.8%. For `CCOC(=O)N1CCC(NC(=O)c2cnn(-c3ccc(OC)cc3)c2C2CCN(C(=O)OC(C)(C)C)CC2)CC1` the value was 5.86%; for `Cc1ccccc1NC(=O)COc1ccc2oc3c(c2c1)CCCC3`, 7.3%. The figure for `O=C(CN1C(=O)COc2ccc(S(=O)(=O)N3CCCCCC3)cc21)N1CCN(c2ccc(F)cc2)CC1` is 3.22%; for `Cn1nccc1/C=C(/C#N)S(=O)(=O)c1ccccc1` it is active: 30.5%; for `COc1ccc(-c2cc3nc(C)c(CCC(=O)NCCc4ccc(Cl)cc4)c(C)n3n2)c(OC)c1` it is -3.04%. For `Cc1ccc(Cn2c(=O)c3cccnc3n(Cc3ccc(C)cc3)c2=O)cc1` the value was -17.1%; for `Cc1cn(C)c(CC(=O)Nc2cccc(C#N)c2)c1C(=O)O`, 15.8%; for `Cc1ccc(CSc2ncc(Cl)c(C(=O)Oc3ccccc3F)n2)cc1`, -10.8%. Regarding `Cc1ccc(Cn2c(=O)n(-c3cccc(C(F)(F)F)c3)c(=O)c3c(C)c(C)sc32)c(C)c1`, the inhibition amounted to 17.4%.

For the molecule `COc1cccc(Cn2nnc(C(=O)NCc3ccc(Cl)cc3Cl)c2N)c1`, the inhibition amounted to 6.83%. Take `CCc1cccc(NC(=O)Cn2c(=O)n3nc(-c4cccc(F)c4)nc3c3ccccc32)c1`: the inhibition is -10.8%. With `COc1ccc(CNC(=O)N2CCc3ccccc3C2)cc1`, the inhibition is active: 34.1%. The figure for `Cc1ccccc1C(=O)Nc1sc2c(c1C(=O)N1CCC(C)CC1)CCC(C)C2` (stereo not drawn) is -17.5%; for `COc1ccc(NC(=O)c2nnn(CC(=O)Nc3ccc(C)c(C)c3)c2N)cc1OC` it is 4.38%.

In the case of `COc1cc(CN2CCN(Cc3ccc(C)cc3)CC2)c([N+](=O)[O-])cc1OC`, the inhibition is active: 88.1%.

As to `CCOc1cc2[nH]c(=O)n(CCCCC(=O)N3CCN(c4ccccc4OC)CC3)c(=O)c2cc1OCC`, the inhibition is -18.4%. The figure for `COc1ccc2c(c1)c1c(c(=O)n(-c3ccc(OC)c(OC)c3)c(=O)n1Cc1ccc(F)cc1)n2C` is 0.225%; for `Cc1cn2c(=O)cc(COC(=O)c3ccc(NC(=O)c4ccccc4C)cc3)nc2s1` it is 4.61%. `Cc1ccccc1CS(=O)(=O)Cc1ccc(C(=O)NCCc2ccc(Cl)cc2)o1`: the inhibition is -4.82%. On to `CCOC(=O)C1CCCN(c2c(C(=O)c3ccccc3)cnc3ccc(F)cc23)C1` (stereo not drawn), for which the inhibition turned out to be 16.5%.

Consider `COc1ccc(-c2c(C)c3cc(OC(=O)N4CCOCC4)ccc3oc2=O)cc1OC`, for which the inhibition was -5%. Consider `CC(CNC(=O)c1ccc(Cn2c(=O)c3cccn3c3cccnc32)cc1)c1ccccc1` (stereo not drawn), for which the inhibition is -1.36%. `COc1cc(CNC(=O)c2ccc3nc(Cc4ccccc4)oc3c2)cc(OC)c1OC`: the inhibition was -24.4%.

As for `COc1cccc(C(=O)CC2(O)C(=O)N(Cc3ccccc3)c3ccccc32)c1` (stereo not drawn), the inhibition is 4.75%. Regarding `O=S(=O)(c1ccc(Br)s1)N1CCN(CCOc2ccccc2)CC1`, the inhibition is active: 53%.

Take `COc1ccc(CNc2ncnc3onc(-c4ccc(F)cc4)c23)cc1`: the inhibition was -4.55%. For `CCOc1ccccc1NC(=O)N1CCc2c(sc(C)c2CC)C1c1ccccc1` (stereo not drawn) the value was -6.89%. The figure for `CCCCNC(=O)CCCn1c(=O)c2ccccc2n(CC(=O)Nc2ccccc2OCC)c1=O` is -14%. For `Cc1ccccc1NS(=O)(=O)c1ccc(C2CNC(=O)C2)cc1` (stereo not drawn) the value was active: 65.6%. Turning to `CCCc1cnc2c(c1SCC(=O)Nc1ccc(C)c(Cl)c1)c(=O)n(C)c(=O)n2C`, the inhibition is -25.2%. `COc1cc(/C=C(\C#N)c2nc3ccccc3[nH]2)ccc1OCc1cccc(C(F)(F)F)c1`: the inhibition is -18%.

As to `O=[N+]([O-])c1ccccc1OCCCN1CCc2ccccc2C1`, the inhibition is active: 74.8%. For `CCOc1ccccc1NC(=O)c1ccc(F)c(S(=O)(=O)NCc2ccc3c(c2)OCO3)c1` the value was 18%; for `CCOC(=O)COc1ccc(Cl)cc1C1NC(=O)NC(C)=C1C(C)=O` (stereo not drawn), active: 30.8%. As to `Cc1ccccc1C(=O)NC1(C(F)(F)F)C(=O)Nc2c1c(=O)[nH]c(=O)n2-c1ccc(F)cc1` (stereo not drawn), the inhibition is 6.41%. Consider `COc1cccc(Cn2c(CNC(=O)c3cc([N+](=O)[O-])ccc3Cl)nc3cccnc32)c1`, for which the inhibition is -18.3%. The figure for `COc1ccc(OCc2nnc(SCC(=O)Nc3cccc(Cl)c3)o2)cc1` is active: 42.7%; for `Cc1ccc(S(=O)(=O)N2CCOCC2)cc1C(=O)OC(C)C(=O)c1ccccc1` (stereo not drawn) it is active: 36.6%; for `Cc1noc(/C=C/c2cccs2)c1S(=O)(=O)N1CCC(C(=O)NCc2ccccc2Cl)CC1` it is 3.28%. Consider `CN(C(=O)Cn1cc(S(=O)(=O)Cc2ccccc2Cl)c2ccccc21)c1ccccc1`, for which the inhibition was 12%. For `COc1ccc(-c2nn3c(-c4ccccc4C)nnc3c3ccccc23)cc1` the value was -3.99%. For `Cc1cccc(NC(=O)Nc2nnc(N(C)Cc3ccccc3)s2)c1` the value was 10.5%; for `CC(=O)c1ccc(NC(=O)c2sc(-n3nc(C)c(Cc4ccccc4)c3C)nc2C)cc1`, 0.203%; for `Cc1ccc(Cl)cc1N1CCN(S(=O)(=O)c2ccc3c(c2)CC(C)N3C(=O)C2CCC2)CC1` (stereo not drawn), -8.52%. On to `CCOCCCNc1ncnc2onc(C)c12`, for which the inhibition is -14.4%. The figure for `Cn1c(=O)c2c(ncn2CC(=O)Nc2cccc(Cl)c2Cl)n(C)c1=O` is -14.8%. For `COC(=O)c1cccnc1-n1c(=O)c2cccnc2n(CC(=O)Nc2ccc(C)cc2C)c1=O` the value was 5.31%; for `O=C(Nc1cc(C(F)(F)F)ccc1Cl)c1cc(-c2ccc3c(c2)OCCO3)on1`, -2.33%; for `CC(C)COc1ccccc1C(=O)NC(CO)C(=O)O` (stereo not drawn), active: 42.8%. For `O=C(Nc1ccc(S(=O)(=O)Nc2ncccn2)cc1)c1ccccc1Cl` the value was 9.48%; for `Cc1ccc2c(c1)N(C(=O)CCC(=O)NCc1ccccc1Cl)CC(C)O2` (stereo not drawn), 15.5%. In the case of `Cc1ccccc1Nc1nc(-c2cccc(Cl)c2)c2c(n1)-c1ccccc1OC2`, the inhibition worked out at 10.9%. With `CC(NC(=O)Cn1c(=O)oc2cc(S(=O)(=O)NCc3ccccc3)ccc21)c1ccccc1` (stereo not drawn), the inhibition worked out at 3.71%. For `COc1ccc(NC(=O)CSc2nnc(NC(=O)Nc3ccccc3)s2)cc1OC` the value was 16.8%; for `CC(=O)c1ccc(NC(=O)COc2ccccc2-c2nc(-c3cccc(C)c3)no2)cc1`, -2.52%; for `COc1ccccc1CNC(=O)CCCn1c(=O)c2ccccc2n(CC(=O)Nc2c(C)cc(C)cc2C)c1=O`, 8.05%. The figure for `O=C(CSc1nc(=O)n(CCN2CCOCC2)c2c1CCC2)Nc1ccccc1` is -1.82%; for `COCCCNC(=O)c1ccc2c(c1)N(Cc1ccccc1)C(=O)c1ccccc1S2` it is 5.88%. The figure for `CCOC(=O)c1sc(NC(=O)C2c3ccccc3Oc3ccccc32)c(C(=O)OCC)c1C` is -3.02%; for `COC(=O)c1cccc(-c2ccc(/C=N/N3C(=O)C4C5C=CC(C6CC56)C4C3=O)o2)c1` (stereo not drawn) it is active: 31.9%; for `CCn1cc(C(=O)NCc2ccccc2Cl)c(=O)c2cc(S(=O)(=O)N3CCc4ccccc4C3)ccc21` it is 4.88%. `COc1ccc(C(=O)Nc2nnc(S(=O)(=O)N(CC(C)C)c3ccc(C)cc3)s2)cc1OC`: the inhibition is -0.115%.

With `COc1ccccc1Nc1nn2c(=O)c3ccc(C(=O)N4CCCC(C)C4)cc3nc2s1` (stereo not drawn), the inhibition is -10.6%. The figure for `Cc1ccc(-n2nc(C)c3c(C(=O)NCc4ccccc4)cc(C4CC4)nc32)cc1` is -12.1%; for `COc1ccccc1CNS(=O)(=O)c1ccc2c(c1)NC(=O)CC(=O)N2` it is 9.07%. The figure for `Cc1ccc(S(=O)(=O)NCc2nc(-c3cccc(C)c3)no2)cc1` is 25.2%; for `COc1ccc(C2CC(=O)N(Cc3cccc(F)c3)c3ccccc3S2)cc1` (stereo not drawn) it is -1.25%.

Regarding `CCOC(=O)c1scc(-c2ccccc2)c1S(=O)(=O)Nc1cc(Cl)c(OC)cc1OC`, the inhibition is -1.79%. For `CC1CCc2c(sc(NC(=O)C3c4ccccc4Oc4ccccc43)c2C(=O)OC(C)C)C1` (stereo not drawn), the inhibition was -13.7%. Regarding `CCOC(=O)c1oc2ccc(S(=O)(=O)n3nc(-c4ccc(Br)cc4)cc3N)cc2c1C`, the inhibition came to 17.3%. The figure for `COc1ccc(CNC(=O)c2c3c(nc4ccccc24)C(=O)N(C2CCCCC2)C3)cc1` is -4.03%.

For the molecule `COC(=O)c1ccc(CSc2nc3c([nH]c4ccccc43)c(=O)n2-c2ccc(OC)cc2)o1`, the inhibition amounted to 20.2%. For `COc1cccc(CNC(=O)c2nn(-c3ccc(C)cc3)c(=O)c3c2c2ccccc2n3C)c1` the value was 20.5%; for `O=C(Cc1ccccc1)NCCc1csc2nc(-c3ccc(Cl)cc3)nn12`, 7.37%; for `CCOc1ccccc1NC(=O)c1c(NC(=O)c2cccc(C)c2)sc2c1CCC2`, 4.88%.

Values taken from PubChem BioAssay AID485344 (National Center for Advancing Translational Sciences (NCATS), 2010).
